{"source": "paper PMC6919601", "about": "“Identification of Plasmodium dipeptidyl aminopeptidase allosteric inhibitors by high throughput screening” (PLoS ONE, 2019)", "note": "In all, about 110,000 compounds went through this assay and about 230 (0.21%) showed an effect of 50% or more. The list shows a part of the results.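 Also: 30 min substrate incubation versus DMSO and 10 µM JCP410 controls.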"}
{"molecular_target": "DPAP1 (Plasmodium falciparum, UniProt Q8IIJ9)", "sequence (Q8IIJ9 whole entry, looked up)": "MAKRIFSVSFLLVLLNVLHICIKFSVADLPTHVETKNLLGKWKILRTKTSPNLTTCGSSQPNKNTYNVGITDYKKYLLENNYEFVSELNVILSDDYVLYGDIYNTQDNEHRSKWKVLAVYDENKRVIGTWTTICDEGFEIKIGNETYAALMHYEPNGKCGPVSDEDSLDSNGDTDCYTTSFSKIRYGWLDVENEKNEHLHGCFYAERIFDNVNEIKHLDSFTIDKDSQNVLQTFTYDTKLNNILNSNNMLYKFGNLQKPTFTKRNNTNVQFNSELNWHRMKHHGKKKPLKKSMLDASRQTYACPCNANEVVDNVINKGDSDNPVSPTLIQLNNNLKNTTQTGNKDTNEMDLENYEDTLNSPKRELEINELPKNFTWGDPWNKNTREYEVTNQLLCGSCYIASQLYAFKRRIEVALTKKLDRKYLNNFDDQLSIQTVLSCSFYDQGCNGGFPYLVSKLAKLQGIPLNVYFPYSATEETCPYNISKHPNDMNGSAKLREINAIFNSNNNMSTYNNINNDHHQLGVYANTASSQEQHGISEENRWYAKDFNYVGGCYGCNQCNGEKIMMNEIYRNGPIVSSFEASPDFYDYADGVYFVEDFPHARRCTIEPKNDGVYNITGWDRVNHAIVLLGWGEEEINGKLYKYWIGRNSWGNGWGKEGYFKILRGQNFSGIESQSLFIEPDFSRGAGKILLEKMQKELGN", "experiment": "primary screen, percent inhibition; read by cleavage of a fluorogenic dipeptide substrate; higher = more effect of the substance", "set-up": "species or system P. falciparum D10 trophozoite lysates; single well", "units": {"% Inhibition @ 10 uM": "%"}}
{"smiles": "Cc1ccc(C)c(NC(=O)c2c(F)cccc2F)c1", "% Inhibition @ 10 uM": -4.31}
{"smiles": "NC(=O)/C(=C\\C=C\\c1ccccc1)NC(=O)c1cccc(Br)c1", "% Inhibition @ 10 uM": -5.88}
{"smiles": "CC(=O)Nc1ccc2nc(SCC(=O)Nc3ccc(Br)cc3Cl)sc2c1", "% Inhibition @ 10 uM": -6.37}
{"smiles": "Cc1ccc(CN2c3ccsc3C(O)=C(/C=N/Cc3ccccc3Cl)S2(=O)=O)cc1", "% Inhibition @ 10 uM": -1.25}
{"smiles": "CC1CCC(NC(=O)c2ccc(C/N=c3\\c(O)c(O)\\c3=N/C3CCCCC3)cc2)CC1", "note": "(stereo not drawn)", "% Inhibition @ 10 uM": -2.47}
{"smiles": "CCC(C)C(NC(=O)OCc1ccccc1)C(=O)O", "note": "(stereo not drawn)", "% Inhibition @ 10 uM": 2.79}
{"smiles": "CCOC(=O)N1CCC2(CC1)OC(=O)C(C)=C2C(=O)NCC1CCCO1", "note": "(stereo not drawn)", "% Inhibition @ 10 uM": 2.62}
{"smiles": "Fc1ccc(CN2CCN(c3ccc(Cl)cc3)CC2)cc1Br", "% Inhibition @ 10 uM": 3.16}
{"smiles": "CCOc1ccc(NC2SC(=O)N(Cc3cccc(C(=O)O)c3)C2=O)cc1", "note": "(stereo not drawn)", "% Inhibition @ 10 uM": -19.7}
{"smiles": "COc1ccccc1C1=NOC(C(=O)NCc2cccnc2)C1", "note": "(stereo not drawn)", "% Inhibition @ 10 uM": -3.45}
{"smiles": "COCc1nc2ccccc2n1C(C)c1ccccc1", "note": "(stereo not drawn)", "% Inhibition @ 10 uM": 1.12}
{"smiles": "CC(C)(C)c1ccc(C(=O)N2CCCC(c3ccccc3)C2)cc1", "note": "(stereo not drawn)", "% Inhibition @ 10 uM": -9.18}
{"smiles": "COc1cccc(C(=O)N2CCN(c3ccccc3OC)CC2)c1", "% Inhibition @ 10 uM": 8.72}
{"smiles": "Cc1onc(-c2ccccc2)c1C(=O)Nc1ccc(Br)cc1F", "% Inhibition @ 10 uM": -3.71}
{"smiles": "Cc1ccc(C)c(Cc2c(C)nc(N3CCOCC3)nc2O)c1", "% Inhibition @ 10 uM": 4.31}
{"smiles": "NC(=O)CSc1nc2sc3c(c2c(=O)n1-c1ccccc1)CCC3", "% Inhibition @ 10 uM": -2.64}
{"smiles": "Cn1c2c(c(=O)n(C)c1=O)C(c1ccccc1[N+](=O)[O-])C(C#N)=C(N)O2", "note": "(stereo not drawn)", "% Inhibition @ 10 uM": 1.7}
{"smiles": "CC1=C(C#N)C(c2ccc(Cl)cc2)C2=C(N1)c1ccccc1S2(=O)=O", "note": "(stereo not drawn)", "% Inhibition @ 10 uM": 6.98}
{"smiles": "COc1ccc2c(CNCCc3ccccc3OC)c(C(=O)O)n(Cc3ccccc3F)c2c1", "% Inhibition @ 10 uM": 0.0525}
{"smiles": "O=C(O)c1ccc(S(=O)(=O)c2ccc(N3CCCCC3)cc2)cc1", "% Inhibition @ 10 uM": 0.847}
{"smiles": "COCCCNC(=O)c1ccc(CS(=O)(=O)Cc2ccccc2Cl)o1", "% Inhibition @ 10 uM": 6.32}
{"smiles": "COc1ccc(-c2nc(CS(=O)CC(=O)N3CCc4ccccc4C3)c(C)o2)cc1", "note": "(stereo not drawn)", "% Inhibition @ 10 uM": -1.05}
{"smiles": "Cc1nn(C)cc1CNC(=O)c1cc2nc3c(c(C(F)(F)F)n2n1)CCc1ccccc1-3", "% Inhibition @ 10 uM": -5}
{"smiles": "CC(C)OC(=O)c1c(NC(=O)c2ccc(Cn3cc(Cl)cn3)o2)sc2c1CCCC2", "% Inhibition @ 10 uM": -2.9}
{"smiles": "COCc1nc(O)c2c(n1)-c1ccccc1CC21CCCC1", "% Inhibition @ 10 uM": 1.4}
{"smiles": "COc1cc(F)ccc1S(=O)(=O)N1CCOCC1", "% Inhibition @ 10 uM": 3.01}
{"smiles": "CS(=O)(=O)CCC(C(=O)Nc1ccc(Cl)cn1)N1Cc2ccccc2C1=O", "note": "(stereo not drawn)", "% Inhibition @ 10 uM": -2.96}
{"smiles": "CC(=O)C(C)n1c(CN(Cc2ccccc2)Cc2ccccc2)nc2c1c(=O)[nH]c(=O)n2C", "note": "(stereo not drawn)", "% Inhibition @ 10 uM": 0.44}
{"smiles": "CC1Cc2nc(SCC(=O)NC3CCCCC3)n(CCc3ccccc3)c(=O)c2S1", "note": "(stereo not drawn)", "% Inhibition @ 10 uM": -1.62}
{"smiles": "COc1ccc(C(=O)N2CCC(C(=O)Nc3ccccc3Br)CC2)cc1OC", "% Inhibition @ 10 uM": -4.97}
{"smiles": "O=S(=O)(NCc1ccccc1Cl)c1cccc2nsnc12", "% Inhibition @ 10 uM": -1.2}
{"smiles": "CCCc1cc(O)n2nc(NC(=O)C(C)C)nc2n1", "% Inhibition @ 10 uM": -1.53}
{"smiles": "Cc1nc2cc(-c3ccc(Cl)cc3)nn2c(C)c1CCC(=O)NC(C)c1ccc2c(c1)OCCO2", "note": "(stereo not drawn)", "% Inhibition @ 10 uM": -0.685}
{"smiles": "Cn1nnnc1SCCCNCc1ccncc1", "% Inhibition @ 10 uM": -4.71}
{"smiles": "Cc1cc(O)nc2sc(C(=O)c3ccc(Cl)c(Cl)c3)c(N)c12", "% Inhibition @ 10 uM": 4.54}
{"smiles": "COc1ccc(Cl)cc1/C=C1\\N=C(SC)SC1=O", "% Inhibition @ 10 uM": 4.18}
{"smiles": "COC(=O)c1ccc(-c2ccco2)n1CC(=O)NCCCN1CCCC1=O", "% Inhibition @ 10 uM": 2.34}
{"smiles": "COc1cc(-c2cc(NC(=O)COCc3cc(-c4ccc(F)cc4)on3)on2)cc(OC)c1OC", "% Inhibition @ 10 uM": -2.69}
{"smiles": "O=C(NCC1(c2ccccc2)CCCC1)c1ccc(F)cc1", "% Inhibition @ 10 uM": -1.19}
{"smiles": "Cc1ccc(C(=O)C2=C(O)C(=O)N(Cc3ccco3)C2c2ccc(N(C)C)cc2)o1", "note": "(stereo not drawn)", "% Inhibition @ 10 uM": 1.61}
{"smiles": "O=C(COc1ccc(Cl)cc1Br)Nc1ccc(F)cc1", "% Inhibition @ 10 uM": -1.11}
{"smiles": "CN(CCc1ccccn1)Cc1ccccc1", "% Inhibition @ 10 uM": 1.91}
{"smiles": "O=C(Cn1nc(C(F)(F)F)cc1C1CC1)Nc1cc(F)ccc1F", "% Inhibition @ 10 uM": -1.88}
{"smiles": "N#Cc1ccc(Oc2ccc(N3C(=O)c4ccc([N+](=O)[O-])cc4C3=O)cc2)cc1", "% Inhibition @ 10 uM": 0.266}
{"smiles": "Cc1cccc(Cn2c(NCCN(C)C)nc3c2c(=O)[nH]c(=O)n3C)c1", "% Inhibition @ 10 uM": -1.4}
{"smiles": "COc1ccc(CCNC(=O)CNS(=O)(=O)c2ccc3nc(C)sc3c2)cc1OC", "% Inhibition @ 10 uM": 2.57}
{"smiles": "Cc1cc(C)cc(N(CC(=O)N2CCN(C(c3ccccc3)c3ccccc3)CC2)S(C)(=O)=O)c1", "% Inhibition @ 10 uM": 3.17}
{"smiles": "COc1cc(CN2CCN(Cc3c[nH]c4ccccc34)CC2)cc(OC)c1OC", "% Inhibition @ 10 uM": -7.84}
{"smiles": "COc1ccc(/C=N/c2nc3c(ccc4ccccc43)s2)cc1", "% Inhibition @ 10 uM": 1.76}
{"smiles": "O=C(NCc1ccccc1Cl)C1CCC(Cn2c(=O)[nH]c3ccsc3c2=O)CC1", "note": "(stereo not drawn)", "% Inhibition @ 10 uM": -4.86}
{"smiles": "CNC(=O)c1c(NC(=O)c2ccccc2)sc2c1CCC(C(C)(C)C)C2", "note": "(stereo not drawn)", "% Inhibition @ 10 uM": 6.08}
{"smiles": "Cc1cc2ncn(Cc3c(F)cccc3Cl)c2cc1C", "% Inhibition @ 10 uM": -7.83}
{"smiles": "CCCCS(=O)(=O)CC(O)COC", "note": "(stereo not drawn)", "% Inhibition @ 10 uM": -4.91}
{"smiles": "O=S(=O)(c1ccc(-n2cccn2)cc1)N1CC=C(c2ccccc2)CC1", "% Inhibition @ 10 uM": -6.3}
{"smiles": "CC1=C(C(=O)Nc2ccc(C)cc2)C(c2ccc(Br)cc2)NC(S)=N1", "note": "(stereo not drawn)", "% Inhibition @ 10 uM": -1.5}
{"smiles": "OCCN1CCN(C2CCN(CCc3ccccc3)CC2)CC1", "% Inhibition @ 10 uM": -1.81}
{"smiles": "Cn1c(=O)c2nc(Cl)n(Cc3ccccc3Cl)c2n(C)c1=O", "% Inhibition @ 10 uM": -8.59}
{"smiles": "Cc1ccccc1CSc1nc2ccncc2n1Cc1ccc(C(=O)NCc2ccccn2)cc1", "% Inhibition @ 10 uM": 2.99}
{"smiles": "Nc1ccc(O)c(-c2nc3cc(N)ccc3[nH]2)c1", "% Inhibition @ 10 uM": -3}
{"smiles": "CCOC(=O)NCCc1c[nH]c2ccc(OCc3ccccc3)cc12", "% Inhibition @ 10 uM": -3.16}
{"smiles": "CC(=O)O[C@H]1CC[C@H](C[C@H](NC(=O)c2ccccc2)C(=O)NCC#N)CC1", "% Inhibition @ 10 uM": 1.35}
{"smiles": "CN(Cc1ccncc1)C1CC(=O)N(c2ccc(F)cc2)C1=O", "note": "(stereo not drawn)", "% Inhibition @ 10 uM": -4.65}
{"smiles": "Cc1ccc(S(=O)(=O)NCc2ccc(C(=O)NCc3cccnc3)cc2)cc1", "% Inhibition @ 10 uM": -3.58}
